Laboratory results as given in the supplement of paper PMC8728848.
The other results are listed elsewhere or left out.

How the values were obtained:
Experiment in all cases: glycan array binding signal (z-score within array); higher = stronger binding
Conditions in all cases: glycan notation: IUPAC condensed, linker removed
Gal(b1-4)GlcNAc = biological target: Gal(b1-4)GlcNAc
How it was run: (§1)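 From the Consortium for Functional Glycomics database, 3228 arrays were curated, keeping only those whose protein sequence was available. Binding is given as a within-array Z-score averaged across arrays sharing a protein sequence and across linkers. Negative Z-scores can be read as non-binding.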

[1] = biological target: Gal(b1-4)GlcNAc(a1-6)Gal(b1-4)GlcNAc
How it was run: as §1

[2] = biological target: Gal(b1-4)GlcNAc(b1-2)Man(a1-3)Man(b1-4)GlcNAc(b1-4)GlcNAc
How it was run: as §1

[3] = biological target: Gal(b1-4)GlcNAc(b1-2)Man(a1-3)[Gal(b1-4)GlcNAc(b1-2)Man(a1-6)]Man(b1-4)GlcNAc(b1-4)GlcNAc
How it was run: as §1

[4] = biological target: Gal(b1-4)GlcNAc(b1-2)Man(a1-3)[Gal(b1-4)GlcNAc(b1-2)Man(a1-6)]Man(b1-4)GlcNAc(b1-4)[Fuc(a1-6)]GlcNAc
How it was run: as §1

[5] = biological target: Gal(b1-4)GlcNAc(b1-2)Man(a1-3)[Man(a1-6)]Man(b1-4)GlcNAc(b1-4)GlcNAc
How it was run: as §1

[6] = biological target: Gal(b1-4)GlcNAc(b1-2)Man(a1-6)Man(b1-4)GlcNAc(b1-4)GlcNAc
How it was run: as §1

[7] = biological target: Gal(b1-4)GlcNAc(b1-2)Man(a1-6)[Man(a1-3)]Man(b1-4)GlcNAc(b1-4)GlcNAc
How it was run: as §1

[8] = biological target: Gal(b1-4)GlcNAc(b1-2)[Gal(b1-4)GlcNAc(b1-4)]Man(a1-3)[Gal(b1-4)GlcNAc(b1-2)Man(a1-6)]Man(b1-4)GlcNAc(b1-4)GlcNAc
How it was run: as §1

[9] = biological target: Gal(b1-4)GlcNAc(b1-3)Gal(b1-3)GlcNAc
How it was run: as §1

[10] = biological target: Gal(b1-4)GlcNAc(b1-3)Gal(b1-4)Glc
How it was run: as §1

[11] = biological target: Gal(b1-4)GlcNAc(b1-3)Gal(b1-4)GlcNAc
How it was run: as §1

[12] = biological target: Gal(b1-4)GlcNAc(b1-3)Gal(b1-4)GlcNAc(b1-3)Gal(b1-4)GlcNAc
How it was run: as §1

[13] = biological target: Gal(b1-4)GlcNAc(b1-3)Gal(b1-4)[Fuc(a1-3)]GlcNAc(b1-3)Gal(b1-4)[Fuc(a1-3)]GlcNAc
How it was run: as §1

[14] = biological target: Gal(b1-4)GlcNAc(b1-3)GalNAc
How it was run: as §1

[15] = biological target: Gal(b1-4)GlcNAc(b1-3)[Gal(b1-4)GlcNAc(b1-6)]Gal(b1-4)GlcNAc
How it was run: as §1

[16] = biological target: Gal(b1-4)GlcNAc(b1-3)[Gal(b1-4)GlcNAc(b1-6)]GalNAc
How it was run: as §1

[17] = biological target: Gal(b1-4)GlcNAc(b1-3)[GlcNAc(b1-6)]Gal(b1-4)GlcNAc
How it was run: as §1

[18] = biological target: Gal(b1-4)GlcNAc(b1-6)Gal(b1-4)GlcNAc
How it was run: as §1

[19] = biological target: Gal(b1-4)GlcNAc(b1-6)Gal(b1-4)GlcNAc(b1-6)GalNAc
How it was run: as §1

[20] = biological target: Gal(b1-4)GlcNAc(b1-6)GalNAc
How it was run: as §1

[21] = biological target: Gal(b1-4)GlcNAc(b1-6)[Gal(b1-3)]GalNAc
How it was run: as §1

Gal3S(b1-3)GalNAc = biological target: Gal3S(b1-3)GalNAc
How it was run: as §1

Gal3S(b1-3)GlcNAc = biological target: Gal3S(b1-3)GlcNAc
How it was run: as §1

[22] = biological target: Gal3S(b1-3)[Fuc(a1-4)]GlcNAc
How it was run: as §1

Gal3S(b1-4)Glc = biological target: Gal3S(b1-4)Glc
How it was run: as §1

Gal3S(b1-4)Glc6S = biological target: Gal3S(b1-4)Glc6S
How it was run: as §1

Gal3S(b1-4)GlcNAc = biological target: Gal3S(b1-4)GlcNAc
How it was run: as §1

Gal3S(b1-4)GlcNAc6S = biological target: Gal3S(b1-4)GlcNAc6S
How it was run: as §1

[23] = biological target: Gal3S(b1-4)[Fuc(a1-3)]Glc
How it was run: as §1

Gal3S4S(b1-4)GlcNAc = biological target: Gal3S4S(b1-4)GlcNAc
How it was run: as §1

Gal3S6S(b1-4)GlcNAc = biological target: Gal3S6S(b1-4)GlcNAc
How it was run: as §1

Gal3S6S(b1-4)GlcNAc6S = biological target: Gal3S6S(b1-4)GlcNAc6S
How it was run: as §1

Gal4S(b1-4)GlcNAc = biological target: Gal4S(b1-4)GlcNAc
How it was run: as §1

Gal4S6S(b1-4)GlcNAc = biological target: Gal4S6S(b1-4)GlcNAc
How it was run: as §1

Gal6S(b1-4)Glc = biological target: Gal6S(b1-4)Glc
How it was run: as §1

Gal6S(b1-4)Glc6S = biological target: Gal6S(b1-4)Glc6S
How it was run: as §1

Gal6S(b1-4)GlcNAc = biological target: Gal6S(b1-4)GlcNAc
How it was run: as §1

Gal6S(b1-4)GlcNAc6S = biological target: Gal6S(b1-4)GlcNAc6S
How it was run: as §1

GalNAc(a1-3)Gal = biological target: GalNAc(a1-3)Gal
How it was run: as §1

GalNAc(a1-3)GalNAc = biological target: GalNAc(a1-3)GalNAc
How it was run: as §1

GalNAc(b1-3)Gal = biological target: GalNAc(b1-3)Gal
How it was run: as §1

[24] = biological target: GalNAc(b1-3)Gal(a1-4)Gal(b1-4)GlcNAc
How it was run: as §1

[25] = biological target: GalNAc(b1-3)Gal(a1-4)Gal(b1-4)GlcNAc(b1-3)Gal(b1-4)Glc
How it was run: as §1

GalNAc(b1-3)GalNAc = biological target: GalNAc(b1-3)GalNAc
How it was run: as §1

B1: SSA (Sclerotinia sclerotiorum), A7XUK7 (protein)
chain: MGFKGVGTYEIVPYQAPSLNLNAWEGKLEPGAVVRTYTRGDKPSDNAKWQVALVAGSGDSAEYLIINVHSGYFLTATKENHIVSTPQISPTDPSARWTIKPATTHQYEVFTINNKVSELGQLTVKDYSTHSGADVLSASAKTADNQKWYFDAK
glycan array binding signal (z-score) (Gal(b1-4)GlcNAc): -0.288
glycan array binding signal (z-score) [1]: -0.414
glycan array binding signal (z-score) [2]: -0.298
glycan array binding signal (z-score) [3]: 1.41
glycan array binding signal (z-score) [4]: -0.288
glycan array binding signal (z-score) [5]: 2.12
glycan array binding signal (z-score) [6]: -0.245
glycan array binding signal (z-score) [7]: -0.176
glycan array binding signal (z-score) [8]: -0.065
glycan array binding signal (z-score) [9]: -0.189
glycan array binding signal (z-score) [10]: -0.046
glycan array binding signal (z-score) [11]: -0.038
glycan array binding signal (z-score) [12]: -0.142
glycan array binding signal (z-score) [13]: -0.107
glycan array binding signal (z-score) [14]: -0.315
glycan array binding signal (z-score) [15]: 0.146
glycan array binding signal (z-score) [16]: 0.463
glycan array binding signal (z-score) [17]: -0.257
glycan array binding signal (z-score) [18]: -0.37
glycan array binding signal (z-score) [19]: 0.004
glycan array binding signal (z-score) [20]: 2.43
glycan array binding signal (z-score) [21]: 0.195
glycan array binding signal (z-score) (Gal3S(b1-3)GalNAc): -0.332
glycan array binding signal (z-score) (Gal3S(b1-3)GlcNAc): -0.164
glycan array binding signal (z-score) [22]: -0.255
glycan array binding signal (z-score) (Gal3S(b1-4)Glc): -0.202
glycan array binding signal (z-score) (Gal3S(b1-4)Glc6S): -0.062
glycan array binding signal (z-score) (Gal3S(b1-4)GlcNAc): -0.136
glycan array binding signal (z-score) (Gal3S(b1-4)GlcNAc6S): -0.019
glycan array binding signal (z-score) [23]: -0.12
glycan array binding signal (z-score) (Gal3S4S(b1-4)GlcNAc): 0.008
glycan array binding signal (z-score) (Gal3S6S(b1-4)GlcNAc): -0.098
glycan array binding signal (z-score) (Gal3S6S(b1-4)GlcNAc6S): 0.018
glycan array binding signal (z-score) (Gal4S(b1-4)GlcNAc): -0.275
glycan array binding signal (z-score) (Gal4S6S(b1-4)GlcNAc): 0.069
glycan array binding signal (z-score) (Gal6S(b1-4)Glc): -0.267
glycan array binding signal (z-score) (Gal6S(b1-4)Glc6S): 0.078
glycan array binding signal (z-score) (Gal6S(b1-4)GlcNAc): -0.222
glycan array binding signal (z-score) (Gal6S(b1-4)GlcNAc6S): 0.403
glycan array binding signal (z-score) (GalNAc(a1-3)Gal): 6.1
glycan array binding signal (z-score) (GalNAc(a1-3)GalNAc): 2.95
glycan array binding signal (z-score) (GalNAc(b1-3)Gal): 3
glycan array binding signal (z-score) [24]: 4.61
glycan array binding signal (z-score) [25]: 6.97
glycan array binding signal (z-score) (GalNAc(b1-3)GalNAc): -0.399
